# Measurements: article PMC5892938
# The list shows a part of the results. At the low end of the ranking the order means little.
# Biological target: GST-SBP-SLBP (stem-loop binding protein) (UniProt Q14493)
# Assay: targeted RNA Bind-n-Seq;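 also: DESeq read counts versus GST-SBP nonspecific binding control pulldown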
# Settings: RBNS binding buffer: 25 mM Tris pH 7.5, 150 mM KCl, 3 mM MgCl2, 0.1% Tween, 0.5 mg/mL BSA, 1 mM DTT; 27 nM protein, 750 pM RNA pool; temperature not stated; high values mean tight binding
row,Sequence,binding signal (log2 fold change)
1,GGUCACGUCUCAAUCAACUCAAUAGAGGGGGGGAAAACCCCUUUACCCUCCAAAUCAACAGCUCGCAGUCAAG,0.0242
2,GGUCACGUCUCAAUCAACUCUAACGAGGGGGGGAAAACCCCUUUACCCUCAAUAUCAACAGCUCGCAGUCAAG,-0.373
3,GGUCACGUCUCAAUCAACUCAAUCCCAGGAGUUUACUCCUGUUAUCUCAACAGCUCGCAGUCAAG,0.165
4,GGUCACGUCUCAAUCAACUCUUUCUCCAGGGAAAACCCUGGUAUUUUCAACAGCUCGCAGUCAAG,-0.0107
5,GGUCACGUCUCAAUCAACUCAUCCCCCAGGGAAAGCCCUGGUUUACUCAACAGCUCGCAGUCAAG,-0.0211
6,GGUCACGUCUCAAUCAACUCUACUCCCAGGGAAACCCCUGGCUAUCUCAACAGCUCGCAGUCAAG,-0.0429
7,GGUCACGUCUCAAUCAACUCAUUCCCCAGGGAAAGCCCUGGCUAACUCAACAGCUCGCAGUCAAG,-0.0276
8,GGUCACGUCUCAAUCAACUCUUUUUCCAGGGAAAUCCCUGGUAUUCUCAACAGCUCGCAGUCAAG,0.125
9,GGUCACGUCUCAAUCAACUCUAUUUCAGGAGUUUACUCCUGCUUACUCAACAGCUCGCAGUCAAG,0.108
10,GGUCACGUCUCAAUCAACUCAUUUCCAGGAGUUUACUCCUGCUAUUUCAACAGCUCGCAGUCAAG,-0.214
11,GGUCACGUCUCAAUCAACUCACUAGAGGGGGGGAAAACCCCUUUGCCCUCAUAAUCAACAGCUCGCAGUCAAG,0.0406
12,GGUCACGUCUCAAUCAACUCAACUUCAGGAGUUUACUCCUGUUAUCUCAACAGCUCGCAGUCAAG,-0.219
13,GGUCACGUCUCAAUCAACUCAUCGUCAGGAGUUUCCUCCUGCUAUUUCAACAGCUCGCAGUCAAG,0.0682
14,GGUCACGUCUCAAUCAACUCAUCCUCAGGAGUUUUCUCCUGCUAAUUCAACAGCUCGCAGUCAAG,0.0964
15,GGUCACGUCUCAAUCAACUCUUUUCCCAGGGAAACCCCUGGCUAACUCAACAGCUCGCAGUCAAG,-0.01
16,GGUCACGUCUCAAUCAACUCUAUUUCCAGGGAAAUCCCUGGUAUUCUCAACAGCUCGCAGUCAAG,-0.112
17,GGUCACGUCUCAAUCAACUCUAUAGAGGGGGGGAAAACCCCUUUGCCCUCAUUAUCAACAGCUCGCAGUCAAG,-0.251
18,GGUCACGUCUCAAUCAACUCACAAGAGGGGGGGAAAACCCCUUUACCCUCACAAUCAACAGCUCGCAGUCAAG,-0.0607
19,GGUCACGUCUCAAUCAACUCAAGUCCCAGGGAAAUCCCUGGCAAAUUCAACAGCUCGCAGUCAAG,0.162
20,GGUCACGUCUCAAUCAACUCAUCCUCAGGAGUUUUCUCCUGUAAAUUCAACAGCUCGCAGUCAAG,0.161
21,GGUCACGUCUCAAUCAACUCACACGAGGGGGGGAAAACCCCUUUGCCCUCAUUUUCAACAGCUCGCAGUCAAG,-0.286
22,GGUCACGUCUCAAUCAACUCUAUCGCAGGAGUUUUCUCCUGGUUAUUCAACAGCUCGCAGUCAAG,-0.244
23,GGUCACGUCUCAAUCAACUCAAUAGAGGGGGGGAAAACCCCUUUACCCUCCUAAUCAACAGCUCGCAGUCAAG,-0.165
24,GGUCACGUCUCAAUCAACUCUUCGUCAGGAGUUUUCUCCUGCAAAUUCAACAGCUCGCAGUCAAG,0.0309

row,Sequence,binding signal (log2 fold change)
1,GGUCACGUCUCAAUCAACUCAACUCCAGGAGUUUUCUCCUGUAUAUUCAACAGCUCGCAGUCAAG,0.145
2,GGUCACGUCUCAAUCAACUCUUUCGCCAGGGAAAUCCCUGGGUAUCUCAACAGCUCGCAGUCAAG,-0.176
3,GGUCACGUCUCAAUCAACUCUAUCCCAGGAGUUUACUCCUGUAUACUCAACAGCUCGCAGUCAAG,0.0393
4,GGUCACGUCUCAAUCAACUCUACUCCCAGGGAAAACCCUGGCUUUUUCAACAGCUCGCAGUCAAG,-0.361
5,GGUCACGUCUCAAUCAACUCAAUUUCCAGGGAAAGCCCUGGCUAUCUCAACAGCUCGCAGUCAAG,-0.0258
6,GGUCACGUCUCAAUCAACUCAUUCUCAGGAGUUUGCUCCUGUUUUUUCAACAGCUCGCAGUCAAG,-0.086
7,GGUCACGUCUCAAUCAACUCUUUUCCCAGGGAAAACCCUGGCUUAUUCAACAGCUCGCAGUCAAG,0.0191
8,GGUCACGUCUCAAUCAACUCAUCUCCAGGAGUUUUCUCCUGCAAUCUCAACAGCUCGCAGUCAAG,-0.05
9,GGUCACGUCUCAAUCAACUCUUAGGAGGGGGGGAAAACCCCUUUACCCUCACAUUCAACAGCUCGCAGUCAAG,0.129
10,GGUCACGUCUCAAUCAACUCAACUCCAGGAGUUUUCUCCUGUUAUGUCAACAGCUCGCAGUCAAG,-0.0565
11,GGUCACGUCUCAAUCAACUCCUAAGAGGGGGGGAAAACCCCUUUACCCUCCAGAUCAACAGCUCGCAGUCAAG,-0.337
12,GGUCACGUCUCAAUCAACUCUACUCCAGGAGUUUCCUCCUGUUAAUUCAACAGCUCGCAGUCAAG,-0.0691
13,GGUCACGUCUCAAUCAACUCUAUUCCAGGAGUUUUCUCCUGUUAACUCAACAGCUCGCAGUCAAG,-0.0435
14,GGUCACGUCUCAAUCAACUCUACUUCCAGGGAAAUCCCUGGUUAAUUCAACAGCUCGCAGUCAAG,-0.0672
15,GGUCACGUCUCAAUCAACUCUUCUUCAGGAGUUUACUCCUGUUAUCUCAACAGCUCGCAGUCAAG,-0.0413
16,GGUCACGUCUCAAUCAACUCAACUCCCAGGGAAAGCCCUGGUUAUUUCAACAGCUCGCAGUCAAG,-0.245
17,GGUCACGUCUCAAUCAACUCAUACGAGGGGGGGAAAACCCCUUUACCCUCAUACUCAACAGCUCGCAGUCAAG,-0.147
18,GGUCACGUCUCAAUCAACUCUUAAGAGGGGGGGAAAACCCCUUUACCCUCACUAUCAACAGCUCGCAGUCAAG,-0.228
19,GGUCACGUCUCAAUCAACUCAAUAGAGGGGGGGAAAACCCCUUUGCCCUCAUUUUCAACAGCUCGCAGUCAAG,0.0718
20,GGUCACGUCUCAAUCAACUCUCAAGAGGGGGGGAAAACCCCUUUGCCCUCCAUGUCAACAGCUCGCAGUCAAG,0.411
21,GGUCACGUCUCAAUCAACUCAAUCCCAGGAGUUUCCUCCUGCAUUCUCAACAGCUCGCAGUCAAG,0.22
22,GGUCACGUCUCAAUCAACUCUUCCGAGGGGGGGAAAACCCCUUUACCCUCAAUUUCAACAGCUCGCAGUCAAG,-0.179
23,GGUCACGUCUCAAUCAACUCUUCGUCCAGGGAAACCCCUGGUAUUCUCAACAGCUCGCAGUCAAG,-0.0723
